# PubChem BioAssay AID588591 (National Center for Advancing Translational Sciences (NCATS), 2011)
# Hit rate of the full screen: of about 390,000 compounds, about 4,700 (1.2%) were called active. This list was built around the results that the source calls inconclusive (neither active nor inactive); the mix of calls is not that of the screen. Calls come from the whole dose curve; as a rule, active = well fitted inhibition curve with a large enough effect; inconclusive = small, poorly fitted or top-dose-only effect, or another doubt; inactive = no such curve, though single readings can be large or run the other way. Potencies beside an inconclusive call are fits to weak or partial responses and may not hold up.
# Target: DNA polymerase eta (Homo sapiens) (UniProt Q9Y253)
# Sequence of UniProt Q9Y253 (Q9Y253 whole entry, looked up): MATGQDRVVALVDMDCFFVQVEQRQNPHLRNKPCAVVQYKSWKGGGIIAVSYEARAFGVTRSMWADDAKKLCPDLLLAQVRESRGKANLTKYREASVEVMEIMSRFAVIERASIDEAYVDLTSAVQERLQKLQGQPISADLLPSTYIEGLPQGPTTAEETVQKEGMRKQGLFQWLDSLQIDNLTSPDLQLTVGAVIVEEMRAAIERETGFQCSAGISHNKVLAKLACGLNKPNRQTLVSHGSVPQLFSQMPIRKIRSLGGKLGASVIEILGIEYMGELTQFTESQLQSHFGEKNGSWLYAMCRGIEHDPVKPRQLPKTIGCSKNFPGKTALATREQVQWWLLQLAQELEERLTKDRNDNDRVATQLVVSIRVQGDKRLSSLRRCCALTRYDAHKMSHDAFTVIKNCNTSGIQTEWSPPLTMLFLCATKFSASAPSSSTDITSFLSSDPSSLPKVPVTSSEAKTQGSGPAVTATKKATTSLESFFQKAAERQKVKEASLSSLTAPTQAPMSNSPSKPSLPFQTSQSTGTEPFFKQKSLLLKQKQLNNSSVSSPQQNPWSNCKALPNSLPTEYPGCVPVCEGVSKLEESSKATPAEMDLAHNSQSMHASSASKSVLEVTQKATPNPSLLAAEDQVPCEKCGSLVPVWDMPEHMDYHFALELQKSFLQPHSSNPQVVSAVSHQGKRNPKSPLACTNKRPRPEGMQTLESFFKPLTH
# Assay: qHTS for Inhibitors of Polymerase Eta
# Conditions: recombinant Pol eta, fluorescent DNA replication assay; series mostly up to 114 µM; activity change, negative = inhibition: at the top concentration
# How it was run: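 Fluorescent replication assay: 50 nM final substrate added after a 15 min room-temperature compound preincubation with 10 nM enzyme. Signal taken at 0 min and again at 10 min.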
# % is set by controls: 0 for no effect and ±100 for the full control effect; potency is the fitted concentration of half-maximal effect; tags give direction and shape of the fitted curve.
SMILES,"activity change, negative = inhibition",Potency
CCN(CC)C(=S)NCCc1ccccc1,inactive: -4.55%,
COc1cccc(OC)c1C(=O)NC(=S)Nc1ccc(N2CCOCC2)c(Cl)c1,,"inconclusive: 79.4 µM [inhibitor, partial curve, poor fit]"
COc1cc(/C=C2/SC(=S)N(CCC(=O)Nc3ccc(C(=O)O)cc3)C2=O)cc(OC)c1OC,,active: 56.2 µM
CCn1c(CN2CCCCC2)nc2cc(NC(=O)COc3ccccc3C(C)(C)C)ccc21,inactive: -15.2%,
CSc1nc(-c2ccccc2)nc2c1COC(C)(C)C2,,"inconclusive: 0.562 µM [inhibitor, full curve, poor fit]"
O=C(NCc1ccco1)c1ccc2c(=O)n(Cc3ccco3)c(SCC(=O)N3CCCC3)nc2c1,,"inconclusive: 56.2 µM [inhibitor, partial curve, poor fit]"
COc1cccc(NC(c2nnc(-c3ccccc3)o2)c2ccc(F)cc2Cl)c1 (stereo unspecified),,"inconclusive: 50.1 µM [inhibitor, partial curve, poor fit]"
C#CC(C)(CC)NC(=O)Cn1nnc(-c2ccc(OCc3ccccc3Cl)cc2)n1 (stereo unspecified),,"inconclusive: 79.4 µM [inhibitor, partial curve, poor fit]"
CCOc1ccc(OCC)c(NC(=O)CSc2nc3ccccc3c(=O)n2C)c1,,"inconclusive: 25.1 µM [inhibitor, single point]"
Cc1cccc(N2CCN(C(=O)c3cc4c(=O)[nH]c5ccc(C)cc5c4s3)CC2C)c1 (stereo unspecified),inactive: -7.28%,
CC(=O)Nc1nnc(-c2c(-c3c(Cl)cccc3Cl)noc2C)o1,,"inconclusive: 89.1 µM [inhibitor, partial curve, poor fit]"
O=C(/C=C/c1ccco1)Nc1ccccc1C(=O)O,,active: 10 µM
COc1ccc(C=O)cc1COc1ccc(F)cc1F,,"inconclusive: 22.4 µM [inhibitor, partial curve]"
O=C(CSc1nc2ccccc2[nH]1)Nc1ccc2[nH]c(=O)[nH]c2c1,,"inconclusive: 35.5 µM [inhibitor, partial curve, poor fit]"
O=C(Nc1nccs1)c1cc(-c2ccco2)nc2ccccc12,,active: 3.98 µM
Cc1cccc(-n2c(=O)c3c4c(sc3n3c(C)nnc23)CCCC4)c1,inactive: -11.5%,
Clc1ccc(-n2c(Cc3ccccc3)nnc2SCc2nc(-c3cccs3)no2)cc1,inactive: -22.3%,
C=CC(=O)Oc1ccc(N2Cc3ccccc3C2=O)cc1,,active: 31.6 µM
CCCCCC(=O)OCc1ccc(C2=CC(=O)CC(C)(C)C2=O)cc1,,"inconclusive: 39.8 µM [inhibitor, partial curve, poor fit]"
Cc1cccc(N(CC(=O)NCCSCc2ccccc2)S(=O)(=O)c2ccccc2)c1C,,"inconclusive: 79.4 µM [inhibitor, partial curve, poor fit]"
Cc1ccccc1CN1CCN(CC(=O)NCc2ccco2)C1=O,,"inconclusive: 35.5 µM [inhibitor, single point]"
Nc1c(S(=O)(=O)O)cc(Nc2ccc(Nc3nc(Cl)nc(Nc4ccc(S(=O)(=O)O)cc4)n3)c(S(=O)(=O)O)c2)c2c1C(=O)c1ccccc1C2=O,,active: 0.631 µM

SMILES,"activity change, negative = inhibition",Potency
COc1ccc(Nc2nn(-c3ccc(OC(F)(F)F)cc3)nc2C(C)=O)cc1,inactive: -19.8%,
COc1ccccc1C(CCN(Cc1cccs1)C(C)=O)c1ccco1 (stereo unspecified),,active: 25.1 µM
Cc1ccc(Oc2ccc3c(c2)C(=O)N(c2ccc(S(=O)(=O)Nc4nccs4)cc2)C3=O)cc1,,active: 89.1 µM
Cc1ccccc1NC(=O)COC(=O)c1ccc(S(C)(=O)=O)c([N+](=O)[O-])c1,,active: 89.1 µM
CCN1C(=O)/C(=C\c2nc3ccccc3c(=O)n2-c2ccccc2)c2ccccc21,,"inconclusive: 35.5 µM [inhibitor, partial curve, poor fit]"
COC(=O)c1cc(C(=O)OCC(=O)Nc2ccc(N3CCOCC3)cc2)cc([N+](=O)[O-])c1,,"inconclusive: 89.1 µM [inhibitor, partial curve, poor fit]"
Cc1cc2cc(CN(CC3CCCO3)C(=S)Nc3ccccc3)c(=O)[nH]c2cc1C (stereo unspecified),,"inconclusive: 10 µM [inhibitor, partial curve, poor fit]"
CC(=O)C1=C(O)C(=O)N(c2ccc(Br)cn2)C1c1ccccc1[N+](=O)[O-] (stereo unspecified),inactive: -3.37%,
CN(C)S(=O)(=O)Oc1ccsc1C(=O)Nc1ccc(Br)cc1,,"inconclusive: 56.2 µM [inhibitor, partial curve, poor fit]"
CCC(=O)Nc1ccc(NC(=S)NC(=O)/C=C/c2ccco2)cc1,,"inconclusive: 28.2 µM [inhibitor, full curve, poor fit]"
CCCC1Cc2c(sc3ncnc(N)c23)CO1 (stereo unspecified),,"inconclusive: 39.8 µM [inhibitor, single point]"
Cc1ccc(NS(=O)(=O)c2ccc(-c3ccc(=O)[nH]n3)o2)c(C)c1,,"inconclusive: 89.1 µM [inhibitor, single point]"
CCc1nn2c(-c3ccccc3OC)ccnc2c1-c1ccccc1,inactive: -25.5%,
Cc1ccc(NC(=O)c2cccc3c2C(=O)N(C2CCCCC2)C3)c(Cl)c1,inactive: -26.3%,
Cc1c(Cl)cccc1NC(=O)Cn1c(=O)n(Cc2ccco2)c(=O)c2sc3ccccc3c21,,"inconclusive: 100 µM [inhibitor, single point]"
CCCc1nn2c(=O)cc(COC(=O)c3cccc(NC(=O)c4cccs4)c3)nc2s1,inactive: -1.35%,
O=C(Cc1cccs1)N(CC1CCCO1)C1(C(=O)NC2CCCCC2)CCCCC1 (stereo unspecified),,"inconclusive: 70.8 µM [inhibitor, partial curve, poor fit]"
COc1ccc(-c2nnc(N(C)C(=O)C3CCCO3)s2)cc1 (stereo unspecified),,"inconclusive: 28.2 µM [inhibitor, partial curve, poor fit]"
CC(C)C(CO)NC(=O)CC(=O)NC(CO)C(C)C (stereo unspecified),inactive: -6.07%,
O=C(O)c1ccc(/C=C/c2nc3sc4c(c3c(=O)[nH]2)CCC4)cc1,,active: 22.4 µM
O=C(CCc1ccc(S(=O)(=O)NC2CCCCC2)cc1)N(Cc1ccccc1)Cc1ccccc1,,"inconclusive: 56.2 µM [inhibitor, partial curve, poor fit]"
CSc1ccccc1C(=O)Nc1ccccc1C(=O)NC(C)C,inactive: -7.58%,

SMILES,"activity change, negative = inhibition",Potency
CC(=O)c1ccccc1Oc1cc(NN2CCCCC2)c([N+](=O)[O-])cc1[N+](=O)[O-],,"inconclusive: 28.2 µM [inhibitor, single point]"
COc1cc(NC(=O)CN2C(=O)c3ccccc3Sc3ccc(C(=O)N4CCCC4)cc32)cc(OC)c1,,"inconclusive: 89.1 µM [inhibitor, partial curve]"
Cc1ccnc(NC(=S)N2CCN(c3cccc(C(F)(F)F)c3)CC2)c1,,"inconclusive: 50.1 µM [inhibitor, partial curve, poor fit]"
COC(=O)CCN(C(=O)c1ccc(N2CCCCC2)c([N+](=O)[O-])c1)c1ccccn1,,"inconclusive: 112 µM [inhibitor, partial curve, poor fit]"
COC(=O)/C(=N/Nc1ccc(C)cc1)N1CCCc2ccccc21,,"inconclusive: 20 µM [inhibitor, full curve, poor fit]"
Cc1ccccc1CSc1ncnc2ccccc12,,"inconclusive: 79.4 µM [inhibitor, partial curve, poor fit]"
O=C(CCCN1C(=O)/C(=C/c2cccs2)SC1=S)NNC(=O)c1ccccc1O,,"inconclusive: 25.1 µM [inhibitor, single point]"
COc1ccc2c(Cl)c(C(=O)NCCCn3ccnc3)sc2c1Cl,,"inconclusive: 10 µM [inhibitor, partial curve]"
COc1cc(OC)c(NC(=O)c2cc3c(=O)oc4ccc(C)cc4c3s2)cc1Cl,inactive: -1.07%,
CCOc1ccccc1NC(=O)c1ccc2c(c1)CCN2S(=O)(=O)c1ccc(C)cc1,inactive: -20.4%,
CCC(CO)Oc1cc(NCc2ccccc2C(F)(F)F)c2ncn(C(C)C)c2c1 (stereo unspecified),,"inconclusive: 79.4 µM [inhibitor, partial curve, poor fit]"
COC(=O)c1cc2ccccn2c2c(C(=O)OC)c(C(=O)OC)cc1-2,,"inconclusive: 22.4 µM [inhibitor, partial curve, poor fit]"
Cc1cc(C=O)c(C)n1-c1sc2c(c1C(=O)O)CCCC2,,"inconclusive: 28.2 µM [inhibitor, single point]"
O=C1Nc2cccnc2N(C(=O)CCl)c2ccccc21,,"inconclusive: 79.4 µM [inhibitor, partial curve]"
O=C(O)c1cccc(-c2ccc(/C=C3/SC(=Nc4ccccc4)N(Cc4cccnc4)C3=O)o2)c1,,active: 7.08 µM
O=C(NN=Cc1cc(Br)c(O)c(Br)c1)c1ccccc1NS(=O)(=O)c1cccs1,,"inconclusive: 15.8 µM [inhibitor, full curve, poor fit]"
CCC(=O)N(CCC(c1ccccc1)c1ccco1)Cc1cccs1 (stereo unspecified),inactive: -23.3%,
CCCCNC(=O)c1onc(CSc2cccc(OC)c2)c1C(=O)NCCCC,,"inconclusive: 39.8 µM [inhibitor, partial curve, poor fit]"
CCOc1ccc(-c2nonc2NC(=O)c2oc3cc(C)ccc3c2C)cc1,inactive: 3.49%,
O=c1c(C(c2ccc(F)cc2)c2c(O)nc3n(c2=O)CCS3)c(O)nc2n1CCS2,,"inconclusive: 56.2 µM [inhibitor, partial curve, poor fit]"
CCc1cc(Cn2nc(-c3ccccc3)cc2C(=O)NCc2cccc(C(F)(F)F)c2)on1,,"inconclusive: 50.1 µM [inhibitor, partial curve, poor fit]"
COC(=O)c1ccc(Oc2coc3cc(OCc4cnn(-c5ccccc5)c4)ccc3c2=O)cc1,,"inconclusive: 14.1 µM [inhibitor, full curve]"
